Experimental data reported in the supplement of paper PMC10498489.
The campaign covered roughly 2,300 compounds. About 330 (14%) showed activity.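 Rule for the calls: active = median modified Z-score above 1.96; inactive = 1.96 or below.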 The entries are a selection whose mix differs from that of the whole data set.

System: HepG2 Srxn1-GFP reporter cells (+30 nM CDDO-Me)
Assay: Srxn1-GFP intensity median modified Z-score relative to plate median; higher = stronger NRF2 / oxidative stress reporter activation, active = hit call of the paper
Conditions: 10 µM; exposure time: 24h
Procedure, shortened: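 Per-cell cytoplasmic GFP was measured on confocal images of formaldehyde-fixed, Hoechst-stained HepG2 Srxn1-GFP BAC reporter cells, excluding images with fewer than 100 cells. Before this, the cells (20,000 per well, 96-well plates) were co-exposed for 24 h to compound at 10 μM and an NRF2 activator at 30 nM with ≤0.1% DMSO, in three replicate plates. Each value is the median over replicates of the per-plate modified Z-score of GFP intensity. That score was scaled with 1.4826 × median absolute deviation.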

Structure (SMILES) | Srxn1-GFP intensity median modified Z-score
O=c1c(-c2ccc(O)cc2)coc2cc(O)cc(O)c12 [euspeclibcmpd1252] | active: 7.05
COC(=O)[C@H]1[C@H]2C[C@@H]3c4[nH]c5cc(OC)ccc5c4CCN3C[C@H]2C[C@@H](OC(=O)c2cc(OC)c(OC)c(OC)c2)[C@@H]1OC [euspeclibcmpd2385] | active: 6.53
O=C(O)P(=O)(O)O [euspeclibcmpd2361] | inactive: -0.115
CCCCCCCCCCCCCCCC[N+](C)(C)CCN(Cc1ccc(OC)cc1)c1ncccn1 [euspeclibcmpd626] | inactive: 1.67
CC(C)NCC(O)c1ccc(NS(C)(=O)=O)cc1 (configuration not stated) [euspeclibcmpd910] | inactive: -0.269
CCOc1ccccc1C(N)=O [euspeclibcmpd2373] | inactive: -0.455
COc1ccc2c(c1)CCC1C2CC[C@@]2(C)C1CC[C@@H]2O (some centres not stated) [euspeclibcmpd2297] | active: 4.5
CO[C@@]1(NC(=O)C(C(=O)O)c2ccc(O)cc2)C(=O)N2C(C(=O)O)=C(CSc3nnnn3C)CO[C@@H]21 (some centres not stated) [euspeclibcmpd2139] | inactive: 0.635
CC(=O)C(O)Nc1c(I)c(C(=O)NC(CO)CO)c(I)c(C(=O)NC(CO)CO)c1I (configuration not stated) [euspeclibcmpd459] | inactive: -0.445
COc1ccc2c(c1)O[C@@H]1COc3cc(OC)c(OC)cc3C1C2=O (some centres not stated) [euspeclibcmpd1700] | active: 22.8
CN(C)CCCN1c2ccccc2CCc2ccc(Cl)cc21 [euspeclibcmpd941] | inactive: 0.721
CO[C@@H]1[C@@H](O[C@@H]2O[C@H](C)[C@@H](O[C@H]3C[C@@](C)(O)[C@H](O)[C@H](C)O3)[C@H](N(C)C)[C@H]2O)[C@@H](CC=O)C[C@@H](C)[C@@H](O[C@H]2CC[C@H](N(C)C)[C@@H](C)O2)/C=C/C=C/C[C@H](C)OC(=O)C[C@H]1O [euspeclibcmpd581] | inactive: 0.0936
Cc1cc(C(C)(C)CC(C)(C)C)ccc1OCCOCC[N+](C)(C)Cc1ccccc1 [euspeclibcmpd556] | active: 24
Nc1ccc(O)c(C(=O)O)c1 [euspeclibcmpd903] | inactive: 0.0529
CC(C)(C)OC(=O)N1[C@H](CNCC(=O)NCC2CC2)COC1(C)C | inactive: 0.298
Cc1cc(OC(=O)c2c(C)cc(O)cc2O)cc(O)c1C(=O)O [euspeclibcmpd1418] | inactive: -0.335
Clc1ccccc1CN1CCc2sccc2C1 [euspeclibcmpd838] | inactive: 0.704
CS(=O)(=O)c1ccc([C@@H](O)[C@@H](CO)NC(=O)C(Cl)Cl)cc1 [euspeclibcmpd535] | inactive: 0.0848
CCOc1cc(NC(C)=O)ccc1C(=O)OC [euspeclibcmpd2103] | inactive: 0.255
O=c1[nH]cc(F)c(=O)[nH]1 [euspeclibcmpd825] | inactive: -0.602
O=C(O)c1cc(=O)c2cccc(O)c2[nH]1 [euspeclibcmpd1429] | inactive: -0.455
COc1ccc2c(c1)C(=O)/C(=C\c1ccc(OC)c(O)c1)CO2 | active: 3.46
CC(C)[C@@H]1CC[C@@H](C)C[C@H]1O [euspeclibcmpd1123] | inactive: 0.0319
CCC(c1ccc(O)cc1)C(CC)c1ccc(O)cc1 (configuration not stated) [euspeclibcmpd1035] | inactive: 1.59

Structure (SMILES) | Srxn1-GFP intensity median modified Z-score
Oc1ccc(C=Cc2cc(O)cc(O)c2)cc1 [euspeclibcmpd1411] | active: 12.1
CC(C)c1ccc2c(c1)CCC1C(C)(C(N)=O)CCCC21C (configuration not stated) [euspeclibcmpd1367] | active: 15.1
CC(=O)OC/C=C(C)/C=C/C=C(C)/C=C/C1=C(C)CCCC1(C)C [euspeclibcmpd1114] | inactive: 0.44
O=C(C=Cc1ccc(O)c(O)c1)OC(Cc1ccc(O)c(O)c1)C(=O)O (configuration not stated) [euspeclibcmpd2083] | inactive: -0.529
C=C[C@H]1C[N@]2CC[C@H]1C[C@@H]2[C@@H](O)c1ccnc2ccc(OC)cc12 [euspeclibcmpd2428] | active: 1.98
Cn1cc(O)[nH]c1=N [euspeclibcmpd1004] | inactive: -0.153
Cc1cc2nc3ccc(N(C)C)cc3[s+]c2cc1N [euspeclibcmpd1030] | active: 9
CC1CCC(NC(=O)N(CCCl)N=O)CC1 (configuration not stated) [euspeclibcmpd125] | inactive: 0.125
CC(c1cc2ccccc2s1)N(O)C(N)=O (configuration not stated) [euspeclibcmpd884] | inactive: -0.107
CC(=O)Oc1cc(C(C)C)c(OCCN(C)C)cc1C [euspeclibcmpd1193] | inactive: 0.256
CNNCc1ccc(C(=O)NC(C)C)cc1 [euspeclibcmpd1291] | inactive: 0.00884
Nc1ccc(C(=O)Oc2ccccc2)c(O)c1 [euspeclibcmpd9] | inactive: 0.24
CN(C)CCC=C1c2ccccc2C=Cc2ccccc21 [euspeclibcmpd540] | inactive: 1.55
CN(C)CCc1c[nH]c2ccc(C[C@H]3COC(=O)N3)cc12 [euspeclibcmpd980] | inactive: 0.441
NS(=O)(=O)c1cc2c(cc1Cl)NCNS2(=O)=O [euspeclibcmpd150] | inactive: -0.544
Cn1c(SC2CCCCC2=O)nnc1-c1cccc(Br)c1 (configuration not stated) | active: 4.66
CS(=O)(=O)Nc1ccc([N+](=O)[O-])cc1Oc1ccccc1 [euspeclibcmpd1133] | inactive: -0.221
CCn1cc(C(=O)O)c(=O)c2cc(F)c(N3CCNC(C)C3)c(F)c21 (configuration not stated) [euspeclibcmpd475] | inactive: -0.902
CN1CCc2cccc3c2C1Cc1ccc(O)c(O)c1-3 (configuration not stated) [euspeclibcmpd27] | inactive: -0.33
CCCCC(=O)Oc1ccccc1C(=O)O [euspeclibcmpd1887] | active: 14.5
CCn1cc(C(=O)O)c(=O)c2cc(F)c(N3CCN(C)CC3)cc21 [euspeclibcmpd844] | inactive: 0.0989
Cc1ccc(S(=O)(=O)NCl)cc1 [euspeclibcmpd2189] | inactive: -0.255
O=C(N/N=C/c1ccc([N+](=O)[O-])o1)c1ccc(O)cc1 [euspeclibcmpd1226] | inactive: 0.949
Cc1ccc(C(C)C)cc2c(C)ccc1-2 [euspeclibcmpd1463] | inactive: -0.455

Structure (SMILES) | Srxn1-GFP intensity median modified Z-score
CCOc1ccc2ccccc2c1C(=O)NC1C(=O)N2C1SC(C)(C)C2C(=O)O (configuration not stated) [euspeclibcmpd2391] | inactive: -0.175
CN1CCN(C(c2ccccc2)c2ccc(Cl)cc2)CC1 (configuration not stated) [euspeclibcmpd2027] | inactive: -0.00147
CCc1cc(C(N)=S)ccn1 [euspeclibcmpd122] | inactive: -0.433
CC(=O)Nc1ccc(S(=O)(=O)Nc2ccc([N+](=O)[O-])cc2)cc1 [euspeclibcmpd574] | inactive: -0.693
Cc1ccc(C(=O)Nc2ccc(S(=O)(=O)O)c3cc(S(=O)(=O)O)cc(S(=O)(=O)O)c23)cc1NC(=O)c1cccc(NC(=O)Nc2cccc(C(=O)Nc3cc(C(=O)Nc4ccc(S(=O)(=O)O)c5cc(S(=O)(=O)O)cc(S(=O)(=O)O)c45)ccc3C)c2)c1 [euspeclibcmpd2231] | inactive: -0.305
CC[C@]1(O)CC2CN(CCc3c([nH]c4ccccc34)[C@@](C(=O)OC)(c3cc4c(cc3OC)N(C=O)[C@H]3[C@@](O)(C(=O)OC)[C@H](OC(C)=O)[C@]5(CC)C=CCN6CC[C@]43[C@@H]65)C2)C1 (some centres not stated) [euspeclibcmpd836] | active: 27.5
CNCCC=C1c2ccccc2CCc2ccccc21 [euspeclibcmpd2305] | inactive: -0.346
OC[C@H]1O[C@@H](OCCc2ccc(O)cc2)[C@H](O)[C@@H](O)[C@@H]1O [euspeclibcmpd1781] | inactive: -0.392
Cc1ccc(/C(=C\CN2CCCC2)c2ccccn2)cc1 [euspeclibcmpd313] | inactive: -0.66
CCCCCC(=O)O[C@]1(C(C)=O)CCC2C3CC=C4CC(=O)CC[C@]4(C)C3CC[C@@]21C (some centres not stated) [euspeclibcmpd155] | active: 13.5
COc1ccc(C(=O)CC(=O)c2ccc(C(C)(C)C)cc2)cc1 [euspeclibcmpd663] | inactive: 0.831
CCOC(=O)C1=C(COCCN)N=C(C)C(C(=O)OC)C1c1ccccc1Cl (configuration not stated) [euspeclibcmpd713] | active: 22.6
COc1ccc(C(=O)c2ccccc2)c(O)c1 [euspeclibcmpd221] | inactive: 0.426
COc1c(N2C[C@@H]3CCCN[C@@H]3C2)c(F)cc2c(=O)c(C(=O)O)cn(C3CC3)c12 [euspeclibcmpd682] | inactive: -0.575
C#CCCCCCCCCCCCC(O)CC(O)COC(C)=O (configuration not stated) [euspeclibcmpd1372] | active: 3.35
CC(C)NCC(O)c1ccc(O)c(O)c1 (configuration not stated) [euspeclibcmpd165] | inactive: -1.08
CCCCCN(CCCCC)C(=O)C(CCC(=O)O)NC(=O)c1ccc(Cl)c(Cl)c1 (configuration not stated) [euspeclibcmpd1828] | inactive: -0.305
C[C@@H](COc1ccccc1)N[C@H](C)[C@H](O)c1ccc(O)cc1 [euspeclibcmpd167] | active: 4.4
Cc1occc(=O)c1O [euspeclibcmpd1662] | inactive: -0.469
CC(C)=CC1C(CO)C1(C)C (configuration not stated) [euspeclibcmpd1789] | active: 2.3
CC(C)(C)NCC(O)COc1cccc2c1CCCC2=O (configuration not stated) [euspeclibcmpd764] | inactive: -0.976
CCC(C(N)=O)c1ccccc1 (configuration not stated) [euspeclibcmpd1763] | inactive: 0.173
CC1(C)CC23C(=O)CCC(O)C2(C)CCC13 (configuration not stated) [euspeclibcmpd2012] | inactive: -0.3
CC1=C(/C=C/C(C)=C/C=C/C(C)=C/C=C/C=C(C)/C=C/C=C(C)/C=C/C2=C(C)C(=O)CCC2(C)C)C(C)(C)CCC1=O [euspeclibcmpd1669] | inactive: -0.405
